# Results: the supplement of paper PMC8728848
# The other results are listed elsewhere or left out.
# Key:
# Assay in all cases: glycan array binding signal (z-score within array); higher = stronger binding
# Conditions in all cases: glycan notation: IUPAC condensed, linker removed; mutation: E41A
# [1] = biological target: Neu5Ac(a2-3)Gal(b1-4)GlcNAc(b1-2)Man(a1-3)[Neu5Ac(a2-6)Gal(b1-4)GlcNAc(b1-2)Man(a1-6)]Man(b1-4)GlcNAc(b1-4)GlcNAc
# Method in brief: (§1)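 Columns mapping to the same glycan were averaged after glycan names were converted to IUPAC-condensed notation. The data come from 3228 arrays in the Consortium for Functional Glycomics database, limited to those with an available protein sequence. Binding is reported as a within-array Z-score averaged across arrays of one protein sequence and across linkers.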
# [2] = biological target: Neu5Ac(a2-3)Gal(b1-4)GlcNAc(b1-2)[Neu5Ac(a2-3)Gal(b1-4)GlcNAc(b1-4)]Man(a1-3)[GlcNAc(b1-4)][Neu5Ac(a2-3)Gal(b1-4)GlcNAc(b1-2)[Neu5Ac(a2-3)Gal(b1-4)GlcNAc(b1-6)]Man(a1-6)]Man(b1-4)GlcNAc(b1-4)GlcNAc
# Method in brief: as §1
# [3] = biological target: Neu5Ac(a2-3)Gal(b1-4)GlcNAc(b1-2)[Neu5Ac(a2-3)Gal(b1-4)GlcNAc(b1-4)]Man(a1-3)[GlcNAc(b1-4)][Neu5Ac(a2-3)Gal(b1-4)GlcNAc(b1-4)Man(a1-6)]Man(b1-4)GlcNAc(b1-4)GlcNAc
# Method in brief: as §1
# [4] = biological target: Neu5Ac(a2-3)Gal(b1-4)GlcNAc(b1-2)[Neu5Ac(a2-3)Gal(b1-4)GlcNAc(b1-6)]Man(a1-6)[Neu5Ac(a2-3)Gal(b1-4)GlcNAc(b1-2)Man(a1-3)][GlcNAc(b1-4)]Man(b1-4)GlcNAc(b1-4)GlcNAc
# Method in brief: as §1
# [5] = biological target: Neu5Ac(a2-3)Gal(b1-4)GlcNAc(b1-3)Gal
# Method in brief: as §1
# [6] = biological target: Neu5Ac(a2-3)Gal(b1-4)GlcNAc(b1-3)Gal(b1-3)GlcNAc
# Method in brief: as §1
# [7] = biological target: Neu5Ac(a2-3)Gal(b1-4)GlcNAc(b1-3)Gal(b1-4)GlcNAc
# Method in brief: as §1
# [8] = biological target: Neu5Ac(a2-3)Gal(b1-4)GlcNAc(b1-3)Gal(b1-4)GlcNAc(b1-2)Man(a1-3)[Neu5Ac(a2-3)Gal(b1-4)GlcNAc(b1-3)Gal(b1-4)GlcNAc(b1-2)Man(a1-6)]Man(b1-4)GlcNAc(b1-4)GlcNAc
# Method in brief: as §1
# [9] = biological target: Neu5Ac(a2-3)Gal(b1-4)GlcNAc(b1-3)Gal(b1-4)GlcNAc(b1-3)Gal(b1-4)GlcNAc
# Method in brief: as §1
# [10] = biological target: Neu5Ac(a2-3)Gal(b1-4)GlcNAc(b1-3)Gal(b1-4)GlcNAc(b1-3)Gal(b1-4)GlcNAc(b1-2)Man(a1-3)[Neu5Ac(a2-3)Gal(b1-4)GlcNAc(b1-3)Gal(b1-4)GlcNAc(b1-3)Gal(b1-4)GlcNAc(b1-2)Man(a1-6)]GalNAc
# Method in brief: as §1
# [11] = biological target: Neu5Ac(a2-3)Gal(b1-4)GlcNAc(b1-3)Gal(b1-4)GlcNAc(b1-3)GalNAc
# Method in brief: as §1
# [12] = biological target: Neu5Ac(a2-3)Gal(b1-4)GlcNAc(b1-3)Gal(b1-4)GlcNAc(b1-3)[Neu5Ac(a2-3)Gal(b1-4)GlcNAc(b1-3)Gal(b1-4)GlcNAc(b1-6)]GalNAc
# Method in brief: as §1
# [13] = biological target: Neu5Ac(a2-3)Gal(b1-4)GlcNAc(b1-3)Gal(b1-4)GlcNAc(b1-6)[Gal(b1-3)]GalNAc
# Method in brief: as §1
# [14] = biological target: Neu5Ac(a2-3)Gal(b1-4)GlcNAc(b1-3)Gal(b1-4)[Fuc(a1-3)]GlcNAc
# Method in brief: as §1
# [15] = biological target: Neu5Ac(a2-3)Gal(b1-4)GlcNAc(b1-3)GalNAc
# Method in brief: as §1
# [16] = biological target: Neu5Ac(a2-3)Gal(b1-4)GlcNAc(b1-3)[Neu5Ac(a2-3)Gal(b1-4)GlcNAc(b1-6)]GalNAc
# Method in brief: as §1
# [17] = biological target: Neu5Ac(a2-3)Gal(b1-4)GlcNAc(b1-6)GalNAc
# Method in brief: as §1
# [18] = biological target: Neu5Ac(a2-3)Gal(b1-4)GlcNAc(b1-6)[Gal(b1-3)]GalNAc
# Method in brief: as §1
# [19] = biological target: Neu5Ac(a2-3)Gal(b1-4)GlcNAc(b1-6)[Neu5Ac(a2-3)Gal(b1-3)]GalNAc
# Method in brief: as §1
# [20] = biological target: Neu5Ac(a2-3)Gal(b1-4)GlcNAc6S
# Method in brief: as §1
# [21] = biological target: Neu5Ac(a2-3)Gal(b1-4)[Fuc(a1-3)]GlcNAc
# Method in brief: as §1
# [22] = biological target: Neu5Ac(a2-3)Gal(b1-4)[Fuc(a1-3)]GlcNAc(b1-2)Man
# Method in brief: as §1
# [23] = biological target: Neu5Ac(a2-3)Gal(b1-4)[Fuc(a1-3)]GlcNAc(b1-3)Gal
# Method in brief: as §1
# [24] = biological target: Neu5Ac(a2-3)Gal(b1-4)[Fuc(a1-3)]GlcNAc(b1-3)Gal(b1-4)GlcNAc
# Method in brief: as §1
# [25] = biological target: Neu5Ac(a2-3)Gal(b1-4)[Fuc(a1-3)]GlcNAc(b1-3)Gal(b1-4)[Fuc(a1-3)]GlcNAc(b1-3)Gal(b1-4)[Fuc(a1-3)]GlcNAc
# Method in brief: as §1
# [26] = biological target: Neu5Ac(a2-3)Gal(b1-4)[Fuc(a1-3)]GlcNAc(b1-3)GalNAc
# Method in brief: as §1
# [27] = biological target: Neu5Ac(a2-3)Gal(b1-4)[Fuc(a1-3)]GlcNAc(b1-6)[Gal(b1-3)]GalNAc
# Method in brief: as §1
# [28] = biological target: Neu5Ac(a2-3)Gal(b1-4)[Fuc(a1-3)]GlcNAc(b1-6)[Neu5Ac(a2-3)Gal(b1-3)]GalNAc
# Method in brief: as §1
# [29] = biological target: Neu5Ac(a2-3)Gal(b1-4)[Fuc(a1-3)]GlcNAc6S
# Method in brief: as §1
# [30] = biological target: Neu5Ac(a2-3)Gal6S(b1-4)GlcNAc
# Method in brief: as §1
# [31] = biological target: Neu5Ac(a2-3)Gal6S(b1-4)[Fuc(a1-3)]GlcNAc
# Method in brief: as §1
# [32] = biological target: Neu5Ac(a2-3)GalNAc
# Method in brief: as §1
# [33] = biological target: Neu5Ac(a2-3)GalNAc(b1-4)GlcNAc
# Method in brief: as §1
# [34] = biological target: Neu5Ac(a2-3)[GalNAc(b1-4)]Gal(b1-4)Glc
# Method in brief: as §1
# [35] = biological target: Neu5Ac(a2-3)[GalNAc(b1-4)]Gal(b1-4)GlcNAc
# Method in brief: as §1
# [36] = biological target: Neu5Ac(a2-3)[GalNAc(b1-4)]Gal(b1-4)GlcNAc(b1-3)GalNAc
# Method in brief: as §1
# [37] = biological target: Neu5Ac(a2-3)[Neu5Ac(a2-6)]GalNAc
# Method in brief: as §1
# [38] = biological target: Neu5Ac(a2-6)Gal
# Method in brief: as §1
# [39] = biological target: Neu5Ac(a2-6)Gal(b1-3)GlcNAc(b1-3)[Gal(b1-4)GlcNAc(b1-6)]Gal(b1-4)Glc
# Method in brief: as §1
# [40] = biological target: Neu5Ac(a2-6)Gal(b1-4)Glc
# Method in brief: as §1
# [41] = biological target: Neu5Ac(a2-6)Gal(b1-4)GlcNAc
# Method in brief: as §1
# [42] = biological target: Neu5Ac(a2-6)Gal(b1-4)GlcNAc(b1-2)Man
# Method in brief: as §1
# [43] = biological target: Neu5Ac(a2-6)Gal(b1-4)GlcNAc(b1-2)Man(a1-3)Man(b1-4)GlcNAc(b1-4)GlcNAc
# Method in brief: as §1
# [44] = biological target: Neu5Ac(a2-6)Gal(b1-4)GlcNAc(b1-2)Man(a1-3)[Gal(b1-4)GlcNAc(b1-2)Man(a1-6)]Man(b1-4)GlcNAc(b1-4)GlcNAc
# Method in brief: as §1
# [45] = biological target: Neu5Ac(a2-6)Gal(b1-4)GlcNAc(b1-2)Man(a1-3)[GlcNAc(b1-4)][Neu5Ac(a2-6)Gal(b1-4)GlcNAc(b1-2)Man(a1-6)]Man(b1-4)GlcNAc(b1-4)GlcNAc
# Method in brief: as §1
binder,measurement,setting,value
CVN-E41G (protein) MHHHHHHENLYFQSGNFSQACYNSAIQGSVLTSTCIRTNGGYNTSSIDLNSVIANVDGSLKWQGSNFIETCRNTQLAGSSELAAECKTRAQQFVSTKINLDDHIAAIDGTLKYE,glycan array binding signal (z-score),[1],-0.136
same,glycan array binding signal (z-score),[2],-0.177
same,glycan array binding signal (z-score),[3],-0.171
same,glycan array binding signal (z-score),[4],-0.141
same,glycan array binding signal (z-score),[5],-0.214
same,glycan array binding signal (z-score),[6],-0.228
same,glycan array binding signal (z-score),[7],-0.075
same,glycan array binding signal (z-score),[8],0.015
same,glycan array binding signal (z-score),[9],-0.131
same,glycan array binding signal (z-score),[10],0.18
same,glycan array binding signal (z-score),[11],-0.174
same,glycan array binding signal (z-score),[12],-0.218
same,glycan array binding signal (z-score),[13],-0.198
same,glycan array binding signal (z-score),[14],-0.225
same,glycan array binding signal (z-score),[15],-0.003
same,glycan array binding signal (z-score),[16],-0.228
same,glycan array binding signal (z-score),[17],-0.142
same,glycan array binding signal (z-score),[18],0.106
same,glycan array binding signal (z-score),[19],-0.227
same,glycan array binding signal (z-score),[20],-0.24
same,glycan array binding signal (z-score),[21],-0.239
same,glycan array binding signal (z-score),[22],-0.141
same,glycan array binding signal (z-score),[23],-0.245
same,glycan array binding signal (z-score),[24],0.004
same,glycan array binding signal (z-score),[25],0.027
same,glycan array binding signal (z-score),[26],0.083
same,glycan array binding signal (z-score),[27],-0.212
same,glycan array binding signal (z-score),[28],-0.162
same,glycan array binding signal (z-score),[29],-0.159
same,glycan array binding signal (z-score),[30],-0.201
same,glycan array binding signal (z-score),[31],-0.235
same,glycan array binding signal (z-score),[32],0.085
same,glycan array binding signal (z-score),[33],-0.174
same,glycan array binding signal (z-score),[34],-0.219
same,glycan array binding signal (z-score),[35],-0.24
same,glycan array binding signal (z-score),[36],-0.192
same,glycan array binding signal (z-score),[37],-0.12
same,glycan array binding signal (z-score),[38],-0.235
same,glycan array binding signal (z-score),[39],-0.182
same,glycan array binding signal (z-score),[40],-0.224
same,glycan array binding signal (z-score),[41],-0.216
same,glycan array binding signal (z-score),[42],0.177
same,glycan array binding signal (z-score),[43],-0.189
same,glycan array binding signal (z-score),[44],-0.165
same,glycan array binding signal (z-score),[45],-0.208
